# Data: the BET-seq Pho4 binding data (Le et al. 2018)
# The list shows a part of the results. Values were computed here from the reads of four pooled replicates and scatter widely.
# Target: T1, Pho4 (S. cerevisiae) (UniProt P07270)
# T1 sequence: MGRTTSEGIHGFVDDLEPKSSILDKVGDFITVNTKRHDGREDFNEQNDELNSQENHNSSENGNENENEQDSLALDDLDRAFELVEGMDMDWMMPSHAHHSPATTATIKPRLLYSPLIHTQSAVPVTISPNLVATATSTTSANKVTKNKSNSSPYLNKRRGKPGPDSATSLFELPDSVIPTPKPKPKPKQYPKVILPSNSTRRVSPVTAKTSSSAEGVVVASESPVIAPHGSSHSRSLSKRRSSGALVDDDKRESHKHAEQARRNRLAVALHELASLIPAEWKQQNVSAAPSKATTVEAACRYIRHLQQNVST
# Assay: relative binding free energy (BET-seq); higher = weaker binding
# Conditions: reference: library average
row,Sequence,relative binding free energy [kcal/mol]
1,GGGGGCACGTGGCAAA,-0.19
2,GAGTGCACGTGCGTTG,0.08
3,TCTTTCACGTGAGGAA,0.42
4,CATTGCACGTGGTATA,-0.04
5,TTCTACACGTGAAGTG,0.19
6,TATGTCACGTGGGTTA,0.02
7,TCTGGCACGTGGTGTC,-0.07
8,CGGAACACGTGGTCGG,-0.09
9,GGGCGCACGTGCGGTC,-0.02
10,GACATCACGTGATGGG,0.19
11,TGACTCACGTGGTATG,0.26
12,ATGATCACGTGGTTGT,0.17
13,GTGGCCACGTGTAAGG,0.18
14,TGTGGCACGTGTCGAA,-0.25
15,GATGTCACGTGGGTCT,0.08
16,AGGAACACGTGACGGT,0.35
17,GTATGCACGTGAAGTG,0.23
18,TTAGGCACGTGGTGGA,-0.06
19,GGTTGCACGTGCCGTG,0.02
20,TAGTACACGTGTAAAG,0.27
21,GAGGCCACGTGTTTTG,0.16
22,CTTGTCACGTGTCTAT,0.12
23,GGGTCCACGTGATTGG,0.24
24,GGGAACACGTGATATG,0.24
25,GGTGACACGTGCGTTA,-0.1
26,CTTGTCACGTGGTACT,0.06

row,Sequence,relative binding free energy [kcal/mol]
1,TTCAACACGTGGTATG,-0.03
2,ATATTCACGTGTAGGT,0.16
3,TGTCTCACGTGCGGTG,-0.04
4,GTGTGCACGTGGATAT,-0.12
5,GGGAGCACGTGTCATG,-0.11
6,AAAAACACGTGGGGTG,-0.03
7,AATTTCACGTGCATGA,0.33
8,AATTACACGTGTGTTC,0.11
9,GCGTGCACGTGTATAT,0.05
10,ATGGTCACGTGTTAAT,0.04
11,GGTTTCACGTGTTACG,0.17
12,TACCGCACGTGTTGGG,-0.05
13,AAGGTCACGTGGAAAG,0.21
14,CGTTGCACGTGTTAGT,-0.09
15,TGGTGCACGTGAAGAG,0.15
16,TTCGGCACGTGAGTTG,0.1
17,TTATACACGTGTTGCA,-0.08
18,TATATCACGTGGTTTG,0.11
19,CGTGGCACGTGCGTTT,-0.24
20,GATTGCACGTGGTCTT,-0.1
21,AGGCACACGTGAGGTT,0.31
22,ATTGACACGTGGGCCT,-0.09
23,AGTACCACGTGGTTGG,-0.18
24,GTATGCACGTGGGCCG,-0.26
25,GTCGTCACGTGTAGGT,0.02
26,TAGGGCACGTGGCGTA,-0.25

row,Sequence,relative binding free energy [kcal/mol]
1,GTTTTCACGTGTCTGA,0.27
2,CGAGGCACGTGGTGTC,-0.11
3,GGGTGCACGTGCGAAG,-0.02
4,GTGTACACGTGGCTTT,0.04
5,ATAAGCACGTGAGTTA,0.17
6,ATACTCACGTGGTTGT,0.08
7,CTATTCACGTGGTGGG,0.13
8,AGTAGCACGTGGTAGC,-0.05
9,GGGGACACGTGTTCTG,0.04
10,AGATACACGTGTGATG,0.11
11,TGCGTCACGTGTGATA,0.11
12,TAAGGCACGTGGTCTA,-0.13
13,TTGGCCACGTGTGTTT,0.03
14,TCAATCACGTGTGTGA,0.06
15,ATTAGCACGTGGGTGC,-0.15
16,TTTGGCACGTGGCATT,-0.16
17,TACGTCACGTGAGTTT,0.34
18,GGGGCCACGTGGGTCT,-0.22
19,GGCGTCACGTGTGTCG,0.14
20,TGTGACACGTGATTCT,0.08
21,AGTCGCACGTGTGCGG,-0.09
22,GTTTGCACGTGGGATT,0.09
23,ATTCGCACGTGTTGCG,0.04
24,GTTGTCACGTGCATGA,-0.01
25,AGTTTCACGTGCGGGT,0.34
26,GCGGCCACGTGGGCGG,-0.18

row,Sequence,relative binding free energy [kcal/mol]
1,ATTGACACGTGGTGAG,0.07
2,TAAAGCACGTGTTAGG,-0.12
3,GATAACACGTGGTTTA,0.04
4,TTAGACACGTGTTGTT,0.08
5,TGGCGCACGTGTCATG,-0.05
6,ATAGGCACGTGTTGTC,-0.01
7,AGGATCACGTGATGGG,0.12
8,AGGATCACGTGGGTAG,0.03
9,GGGGCCACGTGTAAGT,-0.14
10,GGTATCACGTGTTGAT,0.26
11,AGGTTCACGTGCATAG,0.17
12,TATGGCACGTGTCTTA,-0.14
13,AGCATCACGTGGGCTG,0
14,GTATGCACGTGGCGGC,0.08
15,TTTTACACGTGATGGA,0.18
16,TTGGTCACGTGCAATG,0.05
17,AAGCACACGTGGGTTT,0.03
18,TACTGCACGTGTGGGT,-0.01
19,TCGGGCACGTGGAGGA,-0.05
20,GTTGCCACGTGTTTTT,0
21,AGTGGCACGTGGGCGG,-0.22
22,GGGATCACGTGGTGTC,0.08
23,TAAGTCACGTGGCGGT,0.04
24,TGGTTCACGTGGATAA,0.3
25,TTTATCACGTGCCGTG,0.14
26,GTTTTCACGTGTTAAA,0.22

row,Sequence,relative binding free energy [kcal/mol]
1,CTTGGCACGTGTTTCG,-0.05
2,GGTCTCACGTGTGGTA,0.26
3,ACTGGCACGTGGGTCG,-0.14
4,GGTGGCACGTGTCTTT,0.04
5,TAATACACGTGCAGTT,0.15
6,TTTTACACGTGGCTTT,-0.06
7,ATTATCACGTGAGTCG,0.29
8,GGGAGCACGTGTGGCT,-0.12
9,GGTGTCACGTGCATTT,0.22
10,AATAGCACGTGAAGGT,0.2
11,TGCGGCACGTGAAATG,0.09
12,GCTTTCACGTGGTATG,0.25
13,TTCTGCACGTGGGGCG,-0.18
14,ATGAGCACGTGAGTTT,0.09
15,GAATTCACGTGTTGAT,0.4
16,TCGCTCACGTGGGGTG,0.16
17,ATGGGCACGTGGCGCT,-0.23
18,TTGGGCACGTGCAGGT,-0.16
19,GTGCGCACGTGGGACG,-0.2
20,GTTAGCACGTGTTAGG,0.05
21,GATATCACGTGGGTCT,0.06
22,GATGTCACGTGGATAG,0.28
23,GGGTCCACGTGGGGAG,-0.07
24,TAAGGCACGTGTCGCT,-0.06
25,TATTGCACGTGAATCT,0.24
26,ATGGACACGTGGAGAG,0.01

row,Sequence,relative binding free energy [kcal/mol]
1,TATTGCACGTGGGGAA,-0.28
2,TGTCGCACGTGTGGAT,0.05
3,AGGGTCACGTGAAGAA,0.33
4,GTGGTCACGTGATATA,0.21
5,TCAGCCACGTGTGGTG,-0.01
6,TAAGGCACGTGGTTGC,-0.14
7,CTTCGCACGTGTGTGT,-0.11
8,TGTTTCACGTGGCCAT,0.23
9,TGGGCCACGTGAGATA,0.15
10,TGGAACACGTGATGGG,0.22
11,AGGCACACGTGGGGGA,-0.2
12,TTGCTCACGTGTGTAG,0.21
13,TTGGTCACGTGGACAG,0.17
14,TTCATCACGTGGTTGG,0.08
15,TTAGGCACGTGTGTCA,-0.12
16,GTAGTCACGTGTAATG,0.11
17,TGTCGCACGTGTGGGT,-0.02
18,GGACGCACGTGGTGGT,-0.07
19,TAGATCACGTGGAGTT,0.15
20,GAGGGCACGTGTTGTG,-0.07
21,TTAATCACGTGCGTTT,0.12
22,GCTCACACGTGGGGTG,-0.01
23,GGGGTCACGTGTAAAC,0.25
24,AGATGCACGTGGTTGT,-0.09
25,CAATGCACGTGTGTAG,0.12
26,AAAGACACGTGAGGGG,0.25

row,Sequence,relative binding free energy [kcal/mol]
1,TAGGGCACGTGACTGC,0.04
2,AGTACCACGTGTTGGG,-0.05
3,TAAGACACGTGGGAAG,0.01
4,CTGTACACGTGTTCGG,0
5,TTTCCCACGTGGTGGG,-0.16
6,TTTTGCACGTGGGACG,0.06
7,AAAGTCACGTGGTGCG,-0.02
8,TGTGACACGTGGGCGG,-0.23
9,TTGGACACGTGATCTG,0.08
10,TTCGGCACGTGGTGAG,-0.07
11,TGGTGCACGTGCGAGC,0.03
12,ACGGTCACGTGGAGGG,0.02
13,ATGGTCACGTGGGGCC,0.03
14,TGCTTCACGTGGTTGG,0.24
15,TAGAGCACGTGGATGG,-0.05
16,TGGTGCACGTGCGTCG,-0.16
17,TAGGACACGTGTATCG,0.09
18,TGACTCACGTGGAGGT,0.1
19,TGCAACACGTGTTTTT,0.12
20,AGAGGCACGTGCCGTG,-0.17
21,ATTGGCACGTGGGTGA,-0.2
22,TGAGACACGTGCGGAG,-0.04
23,TTTATCACGTGTGGAC,0.3
24,TTCATCACGTGTGGGA,0.2
25,GTTTACACGTGTGAGC,0.2
26,GGGTACACGTGCGGGT,0.07

row,Sequence,relative binding free energy [kcal/mol]
1,CACAGCACGTGTGGTG,-0.03
2,TAAATCACGTGGTTGG,0.09
3,TAACGCACGTGGTTGG,-0.21
4,CGGCTCACGTGGAGTG,0.2
5,GATGGCACGTGATATT,0.18
6,GCTGTCACGTGCTGGA,0.15
7,AGGTACACGTGTTGGC,0.07
8,CTTTTCACGTGTAGTG,0.12
9,GGGGGCACGTGCTAAT,-0.12
10,TCGTACACGTGGGGGT,-0.06
11,TTTTACACGTGGCTAT,0.07
12,GGTTGCACGTGTGAAG,0.19
13,CTGTTCACGTGTCGGG,0.1
14,ATAATCACGTGCAGGT,0.11
15,ATAGTCACGTGGGTAC,-0.03
16,GTAGACACGTGTTCAG,0.12
17,GAGGTCACGTGGAGTC,0.21
18,GATAGCACGTGTAGGC,0.1
19,GAAAACACGTGGGAGT,0.12
20,TGAGACACGTGTTATT,-0.04
21,AGTTGCACGTGATTTT,0.16
22,GAGGGCACGTGATGGA,0.04
23,TATTTCACGTGATTGT,0.43
24,GAAGTCACGTGTGGAT,0.12
25,GGATACACGTGGTAGT,0.07
26,GCGAGCACGTGTGGTG,-0.04

row,Sequence,relative binding free energy [kcal/mol]
1,AAGAGCACGTGGTATT,-0.21
2,ATTATCACGTGACTGG,0.35
3,TGGACCACGTGTTTGT,0.04
4,GGGTGCACGTGATAGT,0.19
5,ATATGCACGTGGGCGC,-0.07
6,GGATGCACGTGTGAAA,0.03
7,GCTAGCACGTGGGAAG,0.04
8,GGTGTCACGTGTTATC,-0.01
9,GATTTCACGTGTCTAG,0.32
10,TAGAGCACGTGTAAAT,0.03
11,AATGTCACGTGACGGG,0.18
12,CTTGGCACGTGGGCGT,-0.3
13,GGGGCCACGTGGGAGT,-0.2
14,CGTAGCACGTGGAATT,0.07
15,ATTCGCACGTGTTGGG,-0.09
16,GATGCCACGTGCGGTT,0.06
17,CGTCTCACGTGGGGTG,-0.11
18,GTAGCCACGTGGAGTA,0
19,CGTTACACGTGAGGTG,0.22
20,TGTGGCACGTGGCGGC,-0.28
21,TGGTGCACGTGTACAG,0.01
22,GTTGACACGTGGTTAG,0.04
